Reference: PubChem BioAssay (NCI)
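Interpolation was linear, between the two tested concentrations surrounding the appropriate level; five concentrations were tested over 48 hours in 96-well plates. GI50: concentration for 50% inhibition of growth. TGI is the concentration that stops growth completely.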

Tested on: NCI-H322M lung
Experiment: growth of human tumour cells (NCI), 48 h

Cc1c(S(=O)(=O)/N=C(\N)Nc2ccc(Cl)cc2)sc2ccc(Cl)cc12
TGI: 34.9 µM

C=C(CN1CCc2ccccc2C1)c1ccc(C(=O)Nc2ccccc2N)cc1
GI50: 2.71 µM
TGI: 14.9 µM

CC1(C)OC2COC3(CNO)OC(C)(C)OC3C2O1 (stereo not given)
TGI: > 100 µM

CCOc1cc(C2CC(c3ccc(NS(=O)(=O)c4cc([N+](=O)[O-])ccc4C)cc3)=NN2C(=O)c2ccccc2)ccc1O (stereo not given)
TGI: > 100 µM

CC[C@H]1CN2CCc3cc(OC)c(OC)cc3[C@@H]2C[C@@H]1C[C@H]1NCCc2cc(OC)c(OC)cc21
TGI: 0.272 µM

Cc1cc(=O)c2c([nH]1)NS(=O)(=O)NC2=O
TGI: > 100 µM

CCOC(=O)C(=O)Nc1ccccc1C(F)(F)F
TGI: > 100 µM

COCOc1ccc(Cn2c(=O)n(C)c(=O)c3c2ncn3C)cc1[N+](=O)[O-]
TGI: > 100 µM

CC(C)c1ccc(C(=O)Nc2sc3c(CN(C)C)c(O)ccc3c2C(N)=O)cc1
GI50: 2.75 µM
TGI: > 100 µM

Cc1nn(C(=O)Cc2ccccc2)c2c1C(c1ccc(O)cc1)SC(N)=N2 (stereo not given)
TGI: > 100 µM

CC1(C)N=C(N)N=C(N)N1c1ccc(OCC(=O)Nc2ccccc2)c(Cl)c1
GI50: 12.7 µM
TGI: > 100 µM

C=CCNC(=S)/N=C/c1c(O)c2ccccc2oc1=O
TGI: > 100 µM

CCN(CC)CC(=O)N1CCc2c([nH]c3ccccc23)C1c1cccnc1 (stereo not given)
TGI: > 100 µM

O=C(CNc1ccccc1Cl)Nn1c(-c2ccccc2)nc2ccccc2c1=O
TGI: > 100 µM

O=c1c2c3c(sc2n2c(-c4cc(-c5ccccc5)nn4-c4ccccc4)nnc2n1Cc1ccccc1)CCCC3
GI50: > 100 µM
TGI: > 100 µM

Nc1c(-c2cccc3ccccc23)c2ccc([N+](=O)[O-])cc2c(=O)n1-c1nc2ccccc2s1
TGI: > 74.9 µM

Cc1cn(C2OC(C)(CO)C(O)C2O)c(=O)[nH]c1=O (stereo not given)
TGI: > 100 µM

C=CCSc1nc2ccccc2c(=O)n1Cc1ccco1
TGI: > 100 µM

CCOC(=O)c1c(-c2ccc(OC)cc2)c(C#N)c(=S)n(C2OC(COC(C)=O)C(OC(C)=O)C(OC(C)=O)C2OC(C)=O)c1C (stereo not given)
TGI: > 100 µM

c1ccc2sc(SCSc3nc4ccccc4s3)nc2c1
TGI: > 100 µM

CCC1=C[C@@H]2CN(C1)Cc1c([nH]c3ccccc13)[C@@](C(=O)OC)(c1cc3c(cc1OC)N(C)[C@H]1[C@@](O)(C(=O)OC)[C@H](OC(C)=O)[C@]4(CC)[C@@H]5C[C@@H]5CN5CC[C@]31[C@@H]54)C2
GI50: < 0.005 µM
TGI: 12.1 µM

COc1ccc2nc3cc(Cl)ccc3c(NCCCNCCCNc3c4ccc(Cl)cc4nc4ccc(OC)cc34)c2c1
TGI: 0.169 µM

O=C1c2cc3c(cc2CC1Br)CCC3 (stereo not given)
TGI: 29.8 µM

NNC(=O)c1ccc[n+](CCc2ccccc2)c1
TGI: > 100 µM

Cc1ccccc1C(O)(c1nccn1C)c1nccn1C
TGI: > 100 µM

c1ccc2nc3c(cc4ccccn43)nc2c1
GI50: 41.8 µM
TGI: > 100 µM

O=C1C=C(O)c2[nH]c(=O)ccc2C1=O
TGI: > 100 µM

O=c1c(Cl)c(Cl)cnn1CCc1ccncc1
TGI: 31.2 µM

O=C(/C=C/c1ccccc1)CC(c1ccccc1)N1CCOCC1 (stereo not given)
GI50: 15.6 µM
TGI: 30.8 µM

COc1ccc2cc3c4cc5c(cc4cc[n+]3cc2c1OC)OCO5
TGI: > 100 µM

Cc1ccccc1Nc1nc2c(s1)C(=O)c1ccccc1C2=O
TGI: 28.4 µM

CS(=O)(=O)OCCn1c(=O)n(CCOS(C)(=O)=O)c(=O)n(CCOS(C)(=O)=O)c1=O
TGI: > 100 µM

O=c1c2ccccc2nc2[nH][nH]c(=S)n12
TGI: > 100 µM

CC(=O)OC1COC(n2c(=S)n(-c3ccccc3)c(=O)c3cc(Br)ccc32)C(OC(C)=O)C1OC(C)=O (stereo not given)
TGI: > 100 µM

Cn1c2ccccc2c2c(=O)c3ccccc3[nH]c21
GI50: 24.6 µM
TGI: > 100 µM

COc1ccc(/C=C2/CCc3cc4ccc(OC)cc4[o+]c32)c(O)c1
GI50: 14 µM
TGI: 28 µM

Cc1cc(N(CCC#N)CCC#N)ccc1/C=C1N=C(/C=C/c2ccccc2)OC(=O)N\1
TGI: > 100 µM

COc1ccccc1-c1cc(=O)c2ccc(C)nc2[nH]1
TGI: > 100 µM

BrC/C=C/C[P+](c1ccccc1)(c1ccccc1)c1ccccc1
TGI: > 100 µM

CC(C)COP(=O)(OCC(C)C)C(NS(=O)(=O)c1ccccc1)(C(F)(F)F)C(F)(F)F
TGI: 17.2 µM

OB1OCc2cc(/C=C/c3cccc(C(F)(F)F)c3)ccc21
GI50: 3.11 µM
TGI: > 100 µM

Cn1cc(-c2csc(-c3cn(C)c4ccccc34)n2)c2cnccc21
GI50: 1.63 µM
TGI: 3.1 µM

C#CCC(N)(CO)C(=O)O (stereo not given)
TGI: > 100 µM

O=C(O)CCC(NC(=S)S)C(=O)O.[Na+].[Zn+2] (stereo not given)
GI50: > 50 µM
TGI: > 50 µM

CCSc1nc(N)c2cn[nH]c2n1
GI50: 19.6 µM
TGI: 56.6 µM

O=C1C(Cl)=C(Nc2ccccc2)C(=O)c2ccccc21
GI50: 17.8 µM
TGI: 46.5 µM

CC(CC(=O)Nc1ccc(NC(=O)CC(C)N=NC(N)=S)cc1)N=NC(N)=S (stereo not given)
TGI: > 100 µM

CSc1cc(Cl)c(C)cc1S(=O)(=O)NC(=O)NNc1ccc(Cl)cc1
TGI: > 100 µM

O=C1C2=C(c3ccccc31)C(c1ccccc1Cl)N1C(=O)CCSC1=N2 (stereo not given)
TGI: > 100 µM

Cn1c(/C(C#N)=C/c2ccc3ccccc3c2)cc2ccccc21
GI50: 0.668 µM
TGI: > 100 µM

COC(=O)/C(C#N)=C1\CCC(C(=O)OC)N1C (stereo not given)
TGI: > 100 µM

COc1nc(C#CCC(C)O)nc(OC)n1 (stereo not given)
TGI: > 100 µM

Cl[Si]1(Cl)Oc2ccccc2O[Si](Cl)(Cl)Oc2ccccc2O1
TGI: > 100 µM

O=C1/C(=C\c2cccc(Oc3ccccc3)c2)S(=O)(=O)C(c2ccccc2)N1Cc1ccccc1 (stereo not given)
TGI: > 100 µM

C[n+]1c2ccccc2cc2c(CNC(CCCN=C(N)N)C(=O)O)cccc21 (stereo not given)
GI50: 9.53 µM
TGI: 21.2 µM

CCN(C(=S)N[C@@H](Cc1ccccc1)C(=O)N[C@@H](CC(C)C)C(=O)OC)c1ccccc1
TGI: > 100 µM

O=C(NCCCN(CCCCN(CCCNC(=O)C(F)(F)F)Cc1ccccc1)Cc1ccccc1)C(F)(F)F
TGI: 29.1 µM

CSc1c(C)c(C)nn1-c1ccccc1
TGI: > 100 µM

Cc1ccc2c(c1)Sc1ccc(N=NN(C)C)cc1N2C
TGI: > 100 µM

C/C(CC1C2CCCC1C2)=N\NC(N)=O (stereo not given)
TGI: > 100 µM

Brc1cccc(Nc2nc(-c3cccs3)nc3ccc(Br)cc23)c1
TGI: > 100 µM

CCCCC1c2c([nH]c3ccccc23)C2C(=O)N(c3ccc(OC)cc3)C(=O)C2C1CCC (stereo not given)
TGI: > 10 µM

CC1(C)N=C(C(N)=O)c2ncn(CCCO)c2N1
TGI: > 100 µM

Oc1ccccc1/C=N/c1nc2cc3sc(/N=C/c4ccccc4O)nc3cc2s1
TGI: > 100 µM

C=C[C@@H]1C(CO)=CCC2[C@H]1CCC1C(C)(C)C(=O)CC[C@]21C (stereo not given in full)
TGI: > 100 µM

O=C1c2cccnc2-c2nc(-c3ccncc3)cc3c2c1nc1ccccc13
GI50: 15.6 µM
TGI: 29.6 µM

COc1ccc(CC(C)C(C)Cc2ccc(OC)c(OC)c2)cc1OC (stereo not given)
GI50: > 1400 µM
TGI: > 1400 µM

C=CCO/N=C/c1cc(NC(=S)c2ccoc2C)ccc1Cl
TGI: 32.5 µM

COc1ccccc1/C=C/C(=O)/C=C/c1ccccc1O
GI50: 2.18 µM
TGI: 8.46 µM

O=C1C[C@H](Sc2ccccc2)C2(OCCO2)[C@@H](Sc2ccccc2)C1
TGI: 20.1 µM

O=C(NCCN1CCOCC1)c1ccc2cc(C(=O)N3CC(CCl)c4ccc([N+](=O)[O-])cc43)[nH]c2c1 (stereo not given)
TGI: > 100 µM

CNC(=O)c1cc2c(Oc3ccc(NC(=O)C4(C(=O)Nc5ccc(F)cc5)CC4)cc3)ccnc2cc1OC
GI50: 4.69 µM
TGI: > 100 µM

CC/C(=N\NS(=O)(=O)c1ccccc1)c1ccccc1
TGI: > 100 µM

CC(C(=O)n1nnc2ccccc21)N(c1ccccc1)c1ccccc1 (stereo not given)
TGI: > 100 µM

CC1=C(C(=O)Nc2ccccc2C)C(/C=C/c2ccccc2)C(C(=O)Nc2ccccc2C)=C(C)N1
TGI: > 100 µM

CCN(CC)CCOc1ccc(N2C(=O)c3cc(OC)c(OC)cc3C2=O)cc1
TGI: > 100 µM

COc1ccc(-c2nnc(N3CCN(C(=O)CN4CCN(c5ccc(OC)cc5)CC4)CC3)nc2-c2ccc(OC)cc2)cc1
GI50: 13.8 µM
TGI: 41.5 µM

O=C(NC12CC3CC(CC(C3)C1)C2)C(=O)c1c[nH]c2ccc(Cl)cc12
TGI: > 100 µM

COc1cc2c(cc1-c1c(C)noc1C)cc(C)c(=O)n2Cc1ccccn1
GI50: 3.88 µM
TGI: > 100 µM

CC1CCCc2c1nn(C(=O)/C=C(\N)c1ccccc1)c2N (stereo not given)
GI50: 10.8 µM
TGI: > 100 µM

Cc1ncc(C(=O)Nc2ccc(CN3CCN(C)CC3)c(C(F)(F)F)c2)cc1C#Cc1cnc(NC2CC2)c2ncccc12
GI50: 0.762 µM
TGI: 1.53 µM

O=C1C(SCCO)=C(SCCO)C(=O)c2ccccc21
TGI: 3.2 µM

COc1cccc(/C=C2\CCC(C)(CN(C)C)C2=O)c1 (stereo not given)
TGI: > 100 µM

CC(=O)N/N=C1\NC(=O)C[C@H]2[C@@H]3CC=C4C[C@@H](OC(C)=O)CC[C@]4(C)[C@H]3CC[C@]12C
TGI: > 100 µM

COc1cc(C2CC(C)(Nc3ccccc3)Oc3cc4c(cc32)OCO4)cc(OC)c1OC (stereo not given)
TGI: > 100 µM

C/C=C/C=C/c1nc(C#N)c(N)o1
TGI: > 100 µM

N#CC(C#N)=CNC(=S)c1ccncc1
TGI: > 100 µM

CN(C)c1nc(=NCc2ccccc2)ss1
TGI: > 10 µM

CCOC(=O)NC(=S)NN(C)C1=NCC(C)(C)S1
TGI: > 100 µM

CCCn1c(CN(Cc2nc3ccccc3n2CCC)Cc2nc3ccccc3n2CCC)nc2ccccc21
TGI: > 70.4 µM

C[C@H]1[C@H](C)CC[C@]2(C(=O)NCCNCCN)CC[C@]3(C)C(=CC[C@@H]4[C@@]5(C)CCC(=O)C(C)(C)[C@@H]5CC[C@]43C)[C@H]12
GI50: 1.61 µM
TGI: 2.97 µM

OC(CN1CC1)C(O)CN1CC1 (stereo not given)
GI50: > 50 µg/mL
TGI: > 50 µg/mL

Cc1csc(-c2cn(C)c3c2C(=O)C(N)=CC3=O)n1
TGI: > 100 µM

CSc1c(C#N)c(N)n2c1C(=O)N(c1ccccc1)C2=S
TGI: > 100 µM

COCCOCCOCc1n(Cc2ccc3ccccc3n2)c2ccccc2[n+]1Cc1ccc2ccccc2c1
GI50: 1.08 µM
TGI: 7.09 µM

O=C(c1ccc2ccccc2c1)c1c(C(F)(F)F)n([O-])c2ccc(Cl)cc2[n+]1=O
GI50: 1.85 µM
TGI: 3.42 µM

COc1ccc2cc(-c3ccc(-c4ccc(C(=N)N)s4)s3)ccc2c1
GI50: 2.02 µM
TGI: 4.88 µM

CCN(CC)CCNC(=O)c1cn2ncnc(Oc3ccc(NC(=O)Nc4ccc(Cl)c(C(F)(F)F)c4)c(F)c3)c2c1C
GI50: 1.83 µM
TGI: 3.26 µM

CC1CC[C@@]2(OC1)OC1C[C@H]3[C@@H]4CC[C@H]5CC(OC6OC(CO)C(OC7OC(CO)C(O)C(O)C7OC7OC(CO)C(O)C(O)C7O)C(O)C6O)CCC5(C)[C@H]4CCC3(C)C1[C@@H]2C (stereo not given in full)
TGI: 6.02 µM

O=P(c1ccccc1)(c1ccccc1)N1O[C@@H](c2ccccc2)C=C[C@H]1c1ccccc1
TGI: 29.5 µM
